This is one part of the list. Single values are uncertain, as repeats are few or missing.
system: CquiOR32-CquiOrco; assay: current response class (signed ordinal: positive = inward/excitatory, negative = outward/inhibitory) (ordinal score (-3..3)); higher = stronger inward (excitatory) current; settings: 1 mM; holding potential (mV): -80

SMILES | current response class
C=CC(C)(C)O [2-methyl-3-buten-2-ol] | inactive: 0
CC(=O)C(C)=CC1C(C)=CCCC1(C)C (stereo not drawn) [α-cetone] | inactive: 0
C/C=C/C=C/C=O [2,4-hexadienal] | inactive: 0
CCCCCCC1CCC(=O)O1 (stereo not drawn) [γ-decalactone] | inactive: 0
COC(=O)c1ccccc1N(C)C [methyl N,N-dimethylanthranilate] | inactive: 0
CC(C)[C@@H]1CC[C@@H](C)C[C@H]1O [L-menthol] | active: -1
CCCCCCCCCCCCO [1-dodecanol] | inactive: 0
CC(=O)c1ccccc1 [acetophenone] | active: 2
Cc1cccc(O)c1 [3-methylphenol] | active: 1
CCC/C=C/CO [(E)-2-hexen-1-ol] | active: 2
CCCCCCCCC(=O)O [nonanoic acid] | inactive: 0
CCCCC/C=C\C=C\C(=O)OCC [ethyl (2E,4Z)-decadienoate] | active: 1
C=CC(O)CCC (stereo not drawn) [1-hexen-3-ol] | active: 1

From the supplement of paper PMC6660600, “Odorant Inhibition in Mosquito Olfaction” (iScience, 2019)
